Values joined by “and” are separate entries in the source; they are usually repeats but may differ in a detail not shown here. Identical values can stand only once. About 50,000 (12%) of roughly 420,000 compounds were called active. Inconclusive results, whose numbers are uncertain, are shown with a selection of clear calls. The call rests on the fitted dose curve; in most records, active means well fitted inhibition curve with a large enough effect; inconclusive means small, poorly fitted or top-dose-only effect; inactive means flat fitted curve, though single readings scatter. Where the call is inconclusive, the potency comes from a doubtful curve fit.
Assay: qHTS for Inhibitors of human tyrosyl-DNA phosphodiesterase 1 (TDP1): qHTS in cells in presence of CPT; further: nearly all actives have a fitted effect of over 55% in size
Conditions: chicken DT40 Tdp1-/-;hTDP1 cells + 20 nM CPT, ATP luminescence, 48 h; activity change, negative = growth inhibition: at 46.2 µM (top of the series) unless noted
Summary of the method: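 Chicken DT40 Tdp1-/- cells stably complemented with human TDP1 were seeded at 400 cells/well in medium containing 20 nM camptothecin, exposed to pin-transferred compounds, and grown at 37 °C for at least 48 hr. Viability was read as ATP luminescence.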
With `COc1ccc(OCC(O)CN2CCc3ccccc3C2)cc1` (stereo not given) the “activity change, negative = growth inhibition” value was inactive: -6.08%. With `O=[N+]([O-])c1ccc(Cl)cc1N1CCCC1` the “activity change, negative = growth inhibition” value was inactive: -1.84%. In the case of `Cc1cc(NC(=O)COC(=O)c2cc3c(s2)CCC(C)C3)no1` (stereo not given), the Potency is reported as inconclusive: 3.66 µM [inhibitor, single point]. In the case of `CSc1ccccc1C(=O)NC1CCCc2ccccc21` (stereo not given), the Potency is reported as inconclusive: 20.6 µM [inhibitor, single point]. In the case of `CCCN1CNc2c(c(=O)[nH]c(=S)n2-c2ccccc2Cl)C1`, the “activity change, negative = growth inhibition” value is reported as inactive: -2.61%. With `CC(=O)C[C@H](O)CC(=O)[C@H]1OC(=O)[C@H](C)CCCCc2ccccc21` the Potency was inconclusive: 0.013 µM [inhibitor, full curve, poor fit]. With `CCSCCc1nnc(NC(=O)Nc2cccc(C(F)(F)F)c2)s1` the Potency was active: 4.11 µM. For `O=C(c1cccs1)N1CCCc2cc(NS(=O)(=O)c3ccc(Cl)cc3)ccc21`, the Potency was inconclusive: 29.1 µM [inhibitor, single point]. For `CCOC(=O)c1[nH]ncc1CN1CCc2ccc(NC(=O)C3CCCO3)cc2C1` (stereo not given), the “activity change, negative = growth inhibition” value was inactive: -1.3%. With `CCOC(=O)N1CCC(NC(=O)CSCc2nc(-c3ccc(OCC)cc3)oc2C)CC1` the Potency was inconclusive: 29.1 µM [inhibitor, single point]. With `O=C(NC1CCCC1)C(c1ccccc1)N(C(=O)c1ccco1)C1CCCC1` (stereo not given) the Potency was inconclusive: 20.6 µM [inhibitor, single point]. In the case of `Cc1ccc(C(=O)Nc2ccc(SC(F)F)cc2)s1`, the Potency is reported as inconclusive: 29.1 µM [inhibitor, single point]. For `CC(=O)C1=C(C)OC(N)=C(C#N)C1c1cccnc1` (stereo not given), the Potency was inconclusive: 9.2 µM [inhibitor, partial curve]. In the case of `CC(C)C[C@H]1CN([C@@H](Cc2ccccc2)CN2CCC[C@H]2CN2C(=O)C(=O)NC[C@@H]2Cc2ccc(O)cc2)C(=O)C(=O)N1CCc1ccccc1`, the Potency is reported as inconclusive: 29.1 µM [inhibitor, single point]. For `Cc1cccc(-c2csc(NC(=O)c3cnccn3)c2C(=O)OC(C)C)c1`, the Potency was inconclusive: 35.5 µM [inhibitor, single point]. In the case of `CCCN1CCN(CCCNC(=O)CCNC(=O)Cn2ccc3ccccc3c2=O)CC1`, the “activity change, negative = growth inhibition” value is reported as inactive: -10.8%. For `O=C(CCS(=O)(=O)c1cccc2nonc12)NCc1ccc(Cl)cc1`, the “activity change, negative = growth inhibition” value was inactive: 7.01%. In the case of `O=C(NCCc1ccccc1)C(=O)NCC(c1cccnc1)N1CCN(c2ccc(F)cc2)CC1` (stereo not given), the Potency is reported as active: 14.6 µM. For `CN(C)C(=O)c1cccc(-c2cnc3cccnn23)c1`, the Potency was inconclusive: 29.1 µM [inhibitor, single point]. With `O=C(CCn1nc(-c2ccc(Cl)cc2)ccc1=O)N1CCN(c2ccccc2)CC1` the Potency was inconclusive: 29.1 µM [inhibitor, single point]. In the case of `O=C(Nc1ccc(F)cc1)c1nc(S(=O)(=O)Cc2ccccc2)ncc1Cl`, the Potency is reported as active: 2.06 µM. With `CC(NS(=O)(=O)c1ccc([N+](=O)[O-])cc1)C(c1cccs1)N1CCOCC1` (stereo not given) the Potency was inconclusive: 14.6 µM [inhibitor, partial curve]. With `COC(=O)[C@]12CCCCC=C1N(Cc1ccccc1)C(=O)[C@H](CC(=O)NCc1cccs1)C2` the Potency was inconclusive: 18.4 µM [inhibitor, single point]. For `Cc1nc(C(F)(F)F)c(C(=O)NC(=O)Nc2ccccc2)s1`, the “activity change, negative = growth inhibition” value was inactive: -2.23%. For `CCN(CC(=O)NC(=O)Nc1ccccc1F)Cc1ccccc1`, the “activity change, negative = growth inhibition” value was inactive: 5.42%. For `COCCn1c(SCC(=O)c2[nH]c(C)c(C(C)=O)c2C)nc2ccccc21`, the Potency was inconclusive: 29.1 µM [inhibitor, single point]. With `CCn1c(SCC(=O)N2CCOCC2)nc2sc3c(c2c1=O)CCCC3` the Potency was inconclusive: 18.4 µM [inhibitor, single point]. For `Cc1cccc(Cn2c(=O)n(CCCC(=O)NCc3ccco3)c(=O)c3ccccc32)c1`, the Potency was active: 9.2 µM. For `COC(=O)C1=C(C)Nc2nnnn2C1c1ccc(Cl)cc1Cl` (stereo not given), the Potency was inconclusive: 25.9 µM [inhibitor, single point]. In the case of `CCOc1c(/C=C(\C#N)C(N)=O)c2ccccc2n1CC`, the Potency is reported as inconclusive: 23.1 µM [inhibitor, single point]. In the case of `CCOC(=O)C1=C(C)NC(=O)NC1c1ccc(N(C)C)cc1` (stereo not given), the “activity change, negative = growth inhibition” value is reported as inactive: -2.15%. For `CC(C)CCn1c(N)c(S(=O)(=O)c2cccs2)c2nc3ccccc3nc21`, the Potency was inconclusive: 23.1 µM [inhibitor, single point]. With `CC(c1ccco1)N(C(=O)COc1ccc(Cl)cc1)c1ccccn1` (stereo not given) the Potency was inconclusive: 35.5 µM [inhibitor, single point]. With `O=C(Nc1ccon1)Nc1ccc(F)cc1F` the “activity change, negative = growth inhibition” value was inactive: -26.6%. In the case of `COc1cc(-c2cc(C(=O)OCC(=O)NC3CC3)c3ccccc3n2)cc(OC)c1OC`, the Potency is reported as inconclusive: 29.1 µM [inhibitor, single point]. For `CCN1CCN(C(=O)c2cc(-c3cccnc3)nc3ccc(Br)cc23)CC1`, the activity change, negative = growth inhibition was inconclusive: -38.3% [inhibitor]. In the case of `CCCCC(=O)O[C@]1(C(=O)CO)CC[C@H]2[C@@H]3CCC4=CC(=O)CC[C@]4(C)[C@H]3[C@@H](O)C[C@@]21C`, the Potency is reported as inconclusive: 18.8 µM [inhibitor, single point] and inconclusive: 25.9 µM [inhibitor, single point]. In the case of `Cc1cc(CN2CCCC(C(=O)Nc3cccc(-n4cccn4)c3)C2)cc(C)c1O` (stereo not given), the Potency is reported as active: 16.4 µM. With `CC(=O)c1ccc(N2CCN(c3ccc(S(=O)(=O)NCCCN(C)C)cc3[N+](=O)[O-])CC2)cc1` the Potency was active: 23.1 µM. For `CC(NS(=O)(=O)c1cc2c3c(c1)CCN3C(=O)CC2)c1ccccc1` (stereo not given), the “activity change, negative = growth inhibition” value was inactive: -6.55%. For `CCOC(=O)CNC(=S)N(CCCN1CCN(C)CC1)Cc1cccs1`, the “activity change, negative = growth inhibition” value was inactive: -2.88%. With `O=C(CSCc1ccc(F)cc1)N1CCN(c2ccccc2)CC1` the Potency was inconclusive: 16.4 µM [inhibitor, single point] and the activity change, negative = growth inhibition was inconclusive: -31.1% [inhibitor]. For `COC(=O)CNC(=O)C12CC3(C)CC(C)(CC(C)(C3)C1)C2`, the Potency was inconclusive: 20.6 µM [inhibitor, single point]. For `Cc1cc(C)c(Cn2c(=O)n(CCCCCC(=O)NCc3ccc4c(c3)OCO4)c(=O)c3sccc32)c(C)c1`, the Potency was inconclusive: 23.1 µM [inhibitor, single point].

Source: PubChem BioAssay AID686979 (National Center for Advancing Translational Sciences (NCATS), 2013)
On the % scale 0 is the no-effect control and ±100 the full control effect; potency means the concentration at half of the fitted maximal effect; tags describe the fitted curve by direction and shape.
